This is an account of results in paper PMC7819943, “Rice protein-binding microarrays: a tool to detect cis-acting elements near promoter regions in rice”.

The other results are listed elsewhere or left out.

In the test the target is T1, OsWOX13 (Oryza sativa, UniProt Q5QMM3 1-267).
T1 sequence: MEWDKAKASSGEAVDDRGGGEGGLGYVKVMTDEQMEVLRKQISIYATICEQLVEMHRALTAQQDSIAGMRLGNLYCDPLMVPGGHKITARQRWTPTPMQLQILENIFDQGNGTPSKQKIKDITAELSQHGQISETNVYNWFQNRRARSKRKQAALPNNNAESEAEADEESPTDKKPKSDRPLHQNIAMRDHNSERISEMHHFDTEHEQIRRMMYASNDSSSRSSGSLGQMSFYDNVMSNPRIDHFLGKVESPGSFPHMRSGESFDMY
In words: protein-binding microarray (RPBM); PBS, 2% BSA, 51.3 ng/ul salmon testes DNA, 50 uM zinc acetate, 200 nM TF, 25 C, 1 h; high values mean tight binding. As to conditions: protein: recombinant; tags: N-terminal polyhistidine and DsRed monomer fusion (pET32a); label: CyDye5-dUTP incorporated in the synthesized complementary strand; 3' TTTTT single-stranded linker to array surface; dsDNA, one strand shown. An outline of the steps:
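Binding signal is defined as the fluorescence intensity of each feature in arbitrary units, read on an Axon 4000B scanner. Transcription factors with N-terminal polyhistidine and DsRed fusions came from E. coli BL21-CodonPlus and were purified on Ni–NTA. They were incubated at 200 nM for 1 h at 25 °C on a custom Agilent array that had been made double-stranded with Cy5-dUTP, with 50 µM zinc acetate present, and the array was washed.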
In the case of “TACTGCATGATTATTAAGTAGGGATCACCATCTGCTTATTCGGAGTCACCTAGTGCAG”, the binding signal is 5940 fluorescence intensity (a.u.).

As for “TTAGATAAGATAGACTGCGATAATATAAGATACTATACAACGGAGTCACCTAGTGCAG”, the binding signal was 3470 fluorescence intensity (a.u.).

With “AATGATAAATGATATGCAGCCGATCTATGATGGAGCAGCTCGGAGTCACCTAGTGCAG”, the binding signal is 9020 fluorescence intensity (a.u.).

In the case of “CTTAATTAGCTCGGAAGCCTTTTCACTTTTCAGCCATGAGCGGAGTCACCTAGTGCAG”, the binding signal was 44500 fluorescence intensity (a.u.).

Regarding “ACTAATTACTGAACTATCATGCATGCATGCAGTACACATTCGGAGTCACCTAGTGCAG”, the binding signal is 30600 fluorescence intensity (a.u.).

Take “AATTTGTAATTTTATTTCTTAGATTATCGGTATTGACATACGGAGTCACCTAGTGCAG”: the binding signal was 4480 fluorescence intensity (a.u.).

On to “CCACAATTTTGCATAATTACTGGTAAGATTTATGACATCACGGAGTCACCTAGTGCAG”, for which the binding signal is 17200 fluorescence intensity (a.u.).

For the sequence “TCATATTGATGTTAATGAAACTACATCTATTTAAGTTTCACGGAGTCACCTAGTGCAG”, the binding signal was 14500 fluorescence intensity (a.u.).

Turning to “GCATGTGATTAATCGGTGATTATGTCTTAATGGAAGGAAACGGAGTCACCTAGTGCAG”, the binding signal was 28200 fluorescence intensity (a.u.).

As for “CTCAAAAGTTAATCACTAATTTGACTACACACTTTCAGAACGGAGTCACCTAGTGCAG”, the binding signal is 10900 fluorescence intensity (a.u.).

“AGCCTCTGACATCTCAATCACATGATCATGAGTGGTTTTCCGGAGTCACCTAGTGCAG”: the binding signal was 16800 fluorescence intensity (a.u.).

As for “CTTTTATAAACTTATTTAAATTTAAACAAGTTTAACTAAGCGGAGTCACCTAGTGCAG”, the binding signal is 7130 fluorescence intensity (a.u.).

Consider “TTGATTGTGTGTGGAAGATCAATCCAAATATGTTCATTTCCGGAGTCACCTAGTGCAG”, for which the binding signal is 8930 fluorescence intensity (a.u.).

For “ATGTGAAATTGAATGCAGTAGTATGCACATGAAACTTGGGCGGAGTCACCTAGTGCAG”, the binding signal was 11300 fluorescence intensity (a.u.).

Regarding “CTATAATTTTACGGAAGAGCCCCTGCTTTAACCTGTATTTCGGAGTCACCTAGTGCAG”, the binding signal was 4380 fluorescence intensity (a.u.).

For “GCTCTGTTCTTCTCTGTTCTTCTCTATTCCTTCCAAATTCCGGAGTCACCTAGTGCAG”, the binding signal is 8290 fluorescence intensity (a.u.).

For “GGATTGGGATTGAGAAATGAATGAAGGGTTAGAATTAAATCGGAGTCACCTAGTGCAG”, the binding signal is 6360 fluorescence intensity (a.u.).

In the case of “GTAATAATTGTATCAAAATTGATGAAAGTAGAAAATAATTCGGAGTCACCTAGTGCAG”, the binding signal is 22600 fluorescence intensity (a.u.).

Regarding “ATTAATTACGCGCTAATCGTTGCTCCGTTTTCCGTGCAAACGGAGTCACCTAGTGCAG”, the binding signal was 11400 fluorescence intensity (a.u.).

As to “AATAATTTTCTTTTGTCACACTGTTTCTTCTCTAATCTATCGGAGTCACCTAGTGCAG”, the binding signal is 5890 fluorescence intensity (a.u.).

As to “AATTCAGCTGTCACATTGATTGGCTTGGCTAATAAGCTGTCGGAGTCACCTAGTGCAG”, the binding signal was 23800 fluorescence intensity (a.u.).

Turning to “TTAAATTAGAAATACGAGGATGGTAAGGTTTGGTCTTTCACGGAGTCACCTAGTGCAG”, the binding signal is 11900 fluorescence intensity (a.u.).

In the case of “GACACCACAAATTGGGCTTTGATTATTCGACATCGTGACCCGGAGTCACCTAGTGCAG”, the binding signal was 14700 fluorescence intensity (a.u.).

On to “CTTAAAATTATAAGTATTGACAAAGGAAATCTCGAAGAAGCGGAGTCACCTAGTGCAG”, for which the binding signal was 10800 fluorescence intensity (a.u.).

On to “AATTGTCCCTGATTGACACCTCTTACTTGACCCTTCTTTCCGGAGTCACCTAGTGCAG”, for which the binding signal is 42600 fluorescence intensity (a.u.).

As to “ACTCTTAAATTTAATTTTAAGAATAGTTAGGATATGGAGCCGGAGTCACCTAGTGCAG”, the binding signal is 17500 fluorescence intensity (a.u.).

Regarding “ATCTGTCACATTAGACATAAATAAAATATTTGCGAAATGTCGGAGTCACCTAGTGCAG”, the binding signal was 3540 fluorescence intensity (a.u.).

In the case of “GATGTGACACGACAAAATTTTACACATATGATCTGAACACCGGAGTCACCTAGTGCAG”, the binding signal is 3640 fluorescence intensity (a.u.).

For the sequence “CCATGATTTGACAATGTGGTGCTACAGTAAACATTTGCCACGGAGTCACCTAGTGCAG”, the binding signal was 25700 fluorescence intensity (a.u.).

As for “TCATTTGATTAATATTATCAAAATACATTCAATGTTAAATCGGAGTCACCTAGTGCAG”, the binding signal was 12000 fluorescence intensity (a.u.).

For “TTTATTGATTGAGAGGAACTATCTACCTCTGTAATGACATCGGAGTCACCTAGTGCAG”, the binding signal is 46600 fluorescence intensity (a.u.).

With “CAGAAACTGGCAATCAAATATGGGGATCAAATTTATGACGCGGAGTCACCTAGTGCAG”, the binding signal is 32000 fluorescence intensity (a.u.).

Regarding “GTACAAAATTATCTAAAATTAACTACAAAATTATGTACTACGGAGTCACCTAGTGCAG”, the binding signal is 12800 fluorescence intensity (a.u.).

“CAATTGACTGGCTCTCAATCATTTGCAGCTTTGGAGTCTTCGGAGTCACCTAGTGCAG”: the binding signal is 36000 fluorescence intensity (a.u.).

With “TCCAGTCTGAACTTTGATGGATTGAGCGGCTGCATTGCTACGGAGTCACCTAGTGCAG”, the binding signal is 3540 fluorescence intensity (a.u.).

For the sequence “TAATAATTTATTATGTGTATGTGTATGGCTAGGATACAGCCGGAGTCACCTAGTGCAG”, the binding signal is 16500 fluorescence intensity (a.u.).

Take “TACTAATTTTAGCTTCCACATTTCTTGTACGCAAGCCTGTCGGAGTCACCTAGTGCAG”: the binding signal was 4200 fluorescence intensity (a.u.).

Take “CTTACACATAATTAATTATTAAAGACCCTATGCGGAGCAACGGAGTCACCTAGTGCAG”: the binding signal is 25000 fluorescence intensity (a.u.).

For “CAGATTATTGAGTGGCTAAAGATCCACTACCCCTAGATAACGGAGTCACCTAGTGCAG”, the binding signal was 7380 fluorescence intensity (a.u.).

Consider “ATGGAATCAGTAATTAACTAGAAATAAATTAATACTCCTACGGAGTCACCTAGTGCAG”, for which the binding signal is 9880 fluorescence intensity (a.u.).

Take “ATAAATTTTAAGTCAAATCAACCAGAAAATTCATAATTTGCGGAGTCACCTAGTGCAG”: the binding signal was 14200 fluorescence intensity (a.u.).

“CTTTATTGATAGGATAAAATTGTTACATCGTTTACCAGATCGGAGTCACCTAGTGCAG”: the binding signal was 52600 fluorescence intensity (a.u.).

Regarding “AAACTAATTTTATAATTCGTTTGGAAACCGCGAGACAAATCGGAGTCACCTAGTGCAG”, the binding signal is 14100 fluorescence intensity (a.u.).

“GTTGATTGGTCGGGCGGAGCAGCGGTCGAACAGCTTGCGGCGGAGTCACCTAGTGCAG”: the binding signal is 50400 fluorescence intensity (a.u.).

Consider “GTTATAAATTGAAGTGGTTAAGCCAGTACTCCAGTTTAATCGGAGTCACCTAGTGCAG”, for which the binding signal was 13300 fluorescence intensity (a.u.).

On to “CAAATGATTGCTTCAAATGATACCGAGATTATTGTCCCTACGGAGTCACCTAGTGCAG”, for which the binding signal was 34000 fluorescence intensity (a.u.).

“TCTGACAGAATATTTTGGAATTTGCAGGTCTTGCTTCTTTCGGAGTCACCTAGTGCAG”: the binding signal is 16800 fluorescence intensity (a.u.).

As for “AGCTCGTCCGATGGTGATTGATGTTGTCGAGCTGGGGTCGCGGAGTCACCTAGTGCAG”, the binding signal was 27000 fluorescence intensity (a.u.).

In the case of “CCAATGTAATTATAATGTAAGTGCAATGCAACTTCTATATCGGAGTCACCTAGTGCAG”, the binding signal was 13600 fluorescence intensity (a.u.).

With “AACAGGTAGGCAGGAGGTCGGAATCTGTCACCATGTGTGTCGGAGTCACCTAGTGCAG”, the binding signal is 6560 fluorescence intensity (a.u.).

With “GTAAATTTAGAAGTTTTAAATGCACCCAGTAATATTTTGTCGGAGTCACCTAGTGCAG”, the binding signal is 3350 fluorescence intensity (a.u.).

With “GACAAACTGACACGGTGACAGTATAAGGGGCTCGCATCCGCGGAGTCACCTAGTGCAG”, the binding signal is 10600 fluorescence intensity (a.u.).

Take “TATTATTTATTTTGTTTGTGATTTGCTTTGTTATTAATAGCGGAGTCACCTAGTGCAG”: the binding signal is 8380 fluorescence intensity (a.u.).

For the sequence “TCAAATTATAATGGCATGATGATTTTAAATACCTATCAAACGGAGTCACCTAGTGCAG”, the binding signal is 16100 fluorescence intensity (a.u.).
